PubChem BioAssay AID1240 (Sanford-Burnham Center for Chemical Genomics, 2008)
The whole screen tested about 50,000 compounds, of which about 800 (1.6%) showed an effect of 50% or more. Some of the results follow.

Target: Bcl-2-like protein 10 (Homo sapiens) (UniProt Q9HD36)
Experiment: TR3 peptide-Bcl-B binding displacers, biochemical primary FP assay, phenotype converters (AID 1240);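 further: 0% = Bcl-B with tracer peptide and DMSO and 100% = tracer peptide lacking Bcl-B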
Details: GST-Bcl-B / FITC-TR3 peptide fluorescence polarization; stronger effect = higher value; compound at 3.75 mg/L

UniProt Q9HD36, sequence (Q9HD36 whole entry, looked up): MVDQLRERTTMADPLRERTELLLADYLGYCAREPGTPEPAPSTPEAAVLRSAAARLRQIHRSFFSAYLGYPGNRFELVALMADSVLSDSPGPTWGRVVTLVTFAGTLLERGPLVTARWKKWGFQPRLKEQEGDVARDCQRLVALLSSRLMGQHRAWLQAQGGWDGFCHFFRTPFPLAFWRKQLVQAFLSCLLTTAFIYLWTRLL

| SMILES | displacement |
| --- | --- |
| O=C(Nc1ccc(S(=O)(=O)N2CCc3ccccc32)cc1)c1cccc([N+](=O)[O-])c1 | 2.1% |
| COc1cccc(/C=N\N2CCN(c3ccccc3)CC2)c1OC | 2.5% |
| CCCOP(=O)(OCCC)C(Nc1ccc(Cl)cc1)c1ccc(Br)cc1 (stereo not given) | 17.1% |
| Cc1ccc(S(=O)(=O)N(Cc2ccccc2)c2ccccn2)cc1[N+](=O)[O-] | -9.3% |
| O=C(Nc1ccc(Cl)cc1)C(=O)NC1CC1 | 0.3% |
| CCOc1ccccc1NC(=O)CN(c1ccc(C)c(Cl)c1)S(C)(=O)=O | 0% |
| CCOC(=O)c1c(NC(=O)c2cccc(F)c2)sc(C(=O)Nc2ccc(OC)cc2OC)c1C | 0.5% |
| CCSC(C)CC1CC(=O)CC(=O)C1C(=O)OC (stereo not given) | 3.7% |
| O=C(Nc1c[nH]c(=O)[nH]c1=O)c1ccc2c(c1)C(=O)N(N1C(=O)c3ccccc3C1=O)C2=O | -1.6% |
| COc1ccc(N/N=C(/C#N)C(=N)N2CCOCC2)cc1 | 3.7% |
| CN1CCN(CCOCCOc2ccc(Cl)cc2)CC1 | -7.3% |
| CCC(SC1=NCCS1)C(=O)N1c2ccccc2Sc2ccccc21 (stereo not given) | -8.8% |
| Cc1ccc(Cl)cc1NC(=O)c1c(-c2c(Cl)cccc2Cl)noc1C | -9.1% |
| Cc1ccc(-n2c(SCCc3ccccc3)nc3sc4c(c3c2=O)CC(C)(C)OC4)cc1 | 6.5% |
| COC(=O)c1c(NC(=O)COc2ccc(-c3ccc(C)cc3)cc2)sc2c1C(C(=O)OC)CC2 (stereo not given) | -8% |
| CCOC(=O)C(=O)Nc1ccc([N+](=O)[O-])cc1OC | -0.6% |
| COc1cccc2c1CC/C(=C\c1ccccc1)C2=O | 15.5% |
| CCOC(=O)c1sc(NC(=O)c2cnccn2)c(C(=O)OCC)c1C | 1.1% |
| CC(C)NC(=O)CN(c1ccc(Oc2ccccc2)cc1)S(C)(=O)=O | 1.8% |
| CC(C)CC(=O)NC(NC(=S)Nc1ccccc1Br)C(Cl)(Cl)Cl (stereo not given) | -3.4% |
| Cc1c(N2C(=O)/C(=C/c3ccc(-c4ccccc4Cl)o3)SC2=S)c(=O)n(-c2ccccc2)n1C | 34% |
| COc1ccc(/C=C2\C(=O)NC(=O)N(c3cc(C)cc(C)c3)C2=O)c(OC)c1 | 9.5% |
| O=c1c2c3c(sc2nc(SCc2ccc([N+](=O)[O-])cc2)n1-c1ccccc1)CCCC3 | -6.8% |
| C/C(=N\NC(=O)c1cc(C(C)(C)C)[nH]n1)c1ccc2ccccc2c1 | -9.4% |

| SMILES | displacement |
| --- | --- |
| CCCCOc1ccc(C(=O)O/N=C2/CCc3cc(OC)ccc32)cc1 | 2% |
| NC(=O)c1ccc(NC(=O)c2sc3ccccc3c2Cl)cc1 | 5.2% |
| O=C(Nc1ccc2nn(-c3ccc(F)cc3)nc2c1)c1ccc(Br)o1 | 49.5% |
| COc1ccc(-c2cc(C(F)(F)F)n3nc(C(=O)Nc4ccccc4C(F)(F)F)cc3n2)cc1 | 6% |
| Cc1c(C(=O)O)cccc1-n1c(C)ccc1C | 85.4% |
| Cc1cc(C)cc(OC(=O)C(C)N2C(=O)c3ccccc3C2=O)c1 (stereo not given) | 1.9% |
| O=C1c2ccc(C(c3ccc4c(c3)C(=O)N(c3ccccc3)C4=O)(C(F)(F)F)C(F)(F)F)cc2C(=O)N1c1ccccc1 | 3.3% |
| CCOC(=O)c1ccc(NC(=O)/C=C/c2ccc(Cl)cc2)cc1 | 16.8% |
| CCCOc1ccc(/C=C2\C(=O)NN(c3ccccc3)C2=O)cc1 | 14.7% |
| COc1ccc(NC(=O)/C(=C/c2cccs2)NC(=O)c2ccc(C(C)(C)C)cc2)cc1 | -8.7% |
| CCn1c(SCC(=O)NN)nc2ccccc21 | -15.2% |
| COc1ccc(OC)c(NC(=O)c2cccc(C)c2)c1 | 7.8% |
| COC(=O)CCC(=O)NCc1ccccc1 | 7.9% |
| CCc1cc(C(=O)N/N=C/c2ccc(OC)c(O)c2)c2ccccc2n1 | -1.3% |
| COc1ccc2oc(=O)c(-c3ccc([N+](=O)[O-])cc3)cc2c1 | -5.7% |
| O=C(NC1CCCCC1)c1cccc(C(F)(F)F)c1 | -3.7% |
| COc1cccc(C(=O)N2CCN(C3CCCCC3OC)CC2)c1 (stereo not given) | -16.2% |
| CCOC(=O)NC(Nc1cccc(F)c1)(C(F)(F)F)C(F)(F)F | -9.3% |
| CCOc1cc(/C=C2\C(=O)N(c3ccc(S(N)(=O)=O)cc3)N=C2C)cc(Br)c1O | -25.9% |
| CCOc1ccc(C2N(Cc3ccccc3)CCN2Cc2ccccc2)cc1 | -8.4% |
| O=C(Nc1ccc(F)c([N+](=O)[O-])c1)c1ccc(-c2ccc(Cl)cc2Cl)o1 | 13.5% |
| CC1(C)c2ccccc2N(CCO)C12C=Cc1cc(Br)ccc1O2 (stereo not given) | 7.8% |
| Cc1ccc(NC(=O)c2ccccc2C(F)(F)F)c(C)c1 | 11.3% |
| CCOC(=O)C1=C(O)/C(=C/c2ccc(Cl)cc2Cl)SC1=Nc1ccccc1 | -11.4% |

| SMILES | displacement |
| --- | --- |
| CCc1nnc(NC(=O)CCc2ccc(OC)cc2)s1 | -4.4% |
| COCCOC(=O)c1ccc(NC(=O)c2ccc(OC)cc2)cc1 | -3.8% |
| CC(=O)Oc1ccc(/C=N/NS(=O)(=O)c2ccccc2)cc1 | 2.9% |
| C/C(=N\Nc1nc(C)cc(-c2ccccc2)n1)c1ccccc1 | -9% |
| CCOc1cc(C=O)ccc1OCc1ccccc1F | 11.7% |
| Cc1cc(C(F)(F)F)nn1CC(=O)Nc1sc2c(c1C#N)CCCC2 | -4.9% |
| CC(=O)/C=C(\C)N1N=C(c2ccccc2)CC1c1ccccc1 (stereo not given) | -19.9% |
| COC(=O)c1sc(NC(=O)c2cccc(F)c2)c(C(=O)OC)c1C | 5.1% |
| Cc1nc(-c2ccc(Br)cc2)[nH]c(=O)c1C | 7.4% |
| C=CCNCCCCOc1ccc(Br)cc1 | 8.5% |
| COc1ccc(-c2cc(-c3c(O)c(OC)c4occc4c3OC)[nH]n2)cc1OC | 13.6% |
| O=C(O)COc1ccccc1/C=N/NC(=O)/C(=C\c1ccc2c(c1)OCO2)NC(=O)c1ccccc1 | 3.6% |
| C/C(=N\OC/C(O)=C(\C#N)c1nc2ccccc2[nH]1)c1ccc(Br)cc1 | 46.6% |
| CS(=O)(=O)N1CCN(C(=O)c2cccs2)CC1 | -10.7% |
| Cc1cc(O)c(C(=O)c2ccccc2C(=O)O)cc1C | 2.2% |
| Cc1occc1C(=O)Nc1nc(-c2ccccc2)c(C)s1 | -16% |
| COc1ccc(N=CC2=C(O)CC(c3ccccc3)CC2=O)cc1OC (stereo not given) | -6.8% |
| CC(C)Cc1cc(-c2ccc(Cl)cc2)c(C#N)c(N)n1 | 3% |
| COc1cccc(C(O)c2nc3ccccc3n2C)c1 (stereo not given) | 0.2% |
| CCOc1ccccc1NC(=O)C(N)=O | 13.6% |
| O=C(O)c1ccccc1SC1CC(=O)N(c2cccc(Cl)c2)C1=O (stereo not given) | -1% |
| O=C(Nc1ccc(F)cc1)C1COc2ccccc2O1 (stereo not given) | -10% |
